Source: the supplement of paper PMC10126150
Sequences with one replicate were seen in a single cluster, so their values are uncertain.

Tested on: ATP
Assay: switch fluorescence ratio, 500 uM ATP over buffer (Cy3 cluster intensity, sum of 5 cycles each) (fold (ratio)); higher = stronger signal-on switching upon ATP binding; sequences stand for … in TCGTCGGCAGCGTCAGATGTGTATAAGAGACAGTTTTTTTTTTTTTTTTTTTTTTTTT…TC
Details: aptamer strand: ATP DNA aptamer (quencher-CACCTGGGGGAGTATTGCGGAGGAAGG + anchor), 100 nM annealed; ATP concentration: 500 uM; one replicate
Outline: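 Imaging in selection buffer was followed by imaging after 15 min with 500 uM ATP at 22 °C, for Cy3-labelled switching-strand clusters annealed to 100 nM quencher-labelled ATP aptamer on a modified Illumina MiSeq flow-cell. Five of these buffer/ATP cycles ran, separated by NaOH stripping and re-annealing. The fluorescence ratio per cluster is summed target-cycle over summed buffer-cycle Cy3 intensity, averaged per switch-domain sequence; clusters outside 100-1000 RFU were removed.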
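Note: ATP exposure 15 min at 22 °C before imaging.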

| Sequence | switch fluorescence ratio |
| --- | --- |
| CTAAACGAGG | 0.993 |
| CGGCAATAAT | 5.49 |
| TGGTATCTAC | 1 |
| AATGTTCGT | 0.998 |
| CTTGGAGTCT | 0.994 |
| GGAAAAAGCT | 1.03 |
| GGCAAAGTAA | 1.01 |
| GGTGTGTCAA | 1.02 |
| TTTACCGATT | 1.03 |
| GCTTCAACGC | 1.29 |
| TAATAGACAA | 0.973 |
| TACCGGCTTA | 1.05 |
| CTCCATTTGC | 2.03 |
| TGGCAATTTA | 1 |
| GATTCGAGCG | 1.03 |
| TACGATCTGA | 0.999 |
| CTCTTGCGCA | 1.11 |
| TCGTGGAGCG | 0.949 |
| ACCGTGTGGA | 0.997 |
| GGTCGCTGGG | 0.973 |
| ATGCTCAGTG | 1.04 |
| TTTCTGCGA | 1.05 |
| GCCCGTGACG | 1.02 |

| Sequence | switch fluorescence ratio |
| --- | --- |
| CGTTGTGGTC | 1.01 |
| CGGTTGGTTC | 0.991 |
| CTTATAGCA | 1.2 |
| GAAAGTGTTC | 1.08 |
| CGACAGGTGT | 4.19 |
| ATGGCAATGC | 5.04 |
| TGCCGAGTAC | 1.11 |
| CAAGTATGCA | 1.01 |
| GTAGAAGCTG | 1.01 |
| CATTCATCTA | 1.01 |
| AGGTCAGTC | 1.01 |
| CCGGCAAGT | 2.19 |
| CCCGGCGGG | 0.979 |
| GGTGAAAGGT | 0.974 |
| AGTGTAAAGT | 0.972 |
| CTCGTGGGTT | 0.96 |
| ACCGTGGCAC | 1.06 |
| GGCGTCACGT | 1 |
| CTTGACTCAG | 1 |
| TTCACAAAAG | 0.939 |
| GGTGTCGTAA | 1.02 |
| CAAGAGGTTG | 1.06 |
| GTGCGACCTT | 1.18 |

| Sequence | switch fluorescence ratio |
| --- | --- |
| AGAACCCAAT | 1.01 |
| ATGAGATTT | 0.991 |
| CGGGTAGCTC | 1.02 |
| GCAGCACCGC | 1.01 |
| TCACGGGCTG | 1 |
| AGCTAAGGAC | 1.04 |
| ATCGTATGCT | 1.03 |
| GCTATGGGCC | 1.07 |
| CATAGCTTAA | 1.09 |
| GTGGCAGTAC | 4.13 |
| TTCAGTGAGA | 0.997 |
| TACGACTTAA | 1.18 |
| GCGAAAAATC | 1.04 |
| CATCAGTGT | 1.01 |
| CCTGGCGCCG | 0.982 |
| CGCCGGGAAC | 1.7 |
| TACAGCCCCC | 1.17 |
| TCAGATTAAC | 1 |
| GGGCGATTCA | 0.995 |
| TCGGGTTCAC | 1.02 |
| TTCTTGATCC | 1.04 |
| AATCTAAGGC | 1.01 |
| GTCACTTGCG | 0.961 |

| Sequence | switch fluorescence ratio |
| --- | --- |
| CTTCGAGTCT | 1.13 |
| GGAGAATAGC | 1.01 |
| ACGCGCTGAC | 1.24 |
| TGTGGTTCCT | 1.01 |
| CCGTGATTTA | 1.02 |
| TGGCTTCGTC | 1 |
| CCGTTCGATC | 1.38 |
| TCCTTAGTTA | 0.995 |
| AAGTGCGGCT | 0.958 |
| TCATATCGGA | 0.976 |
| GTTGTTTAGA | 0.965 |
| AAAGATCAGG | 1 |
| TATCGTTTAG | 1.02 |
| GATAGTCCAA | 0.995 |
| GCGAGAAGAA | 0.956 |
| ACCGTCCGTG | 1.08 |
| TAACAGTTGG | 0.994 |
| TACGGACGCT | 1.21 |
| TAATGCCTTA | 0.971 |
| GCCATCTCTG | 0.983 |
| GAGCATCGGT | 1.05 |
| TATTAAAATC | 1.01 |
| TTCCTTAATT | 0.99 |

| Sequence | switch fluorescence ratio |
| --- | --- |
| GTATGGACGT | 0.988 |
| TAAGTTAAGT | 1.02 |
| AGTGAGTCAA | 0.973 |
| TAGCGTTGTT | 0.963 |
| CATTTCGCCT | 1.04 |
| AACCCTACAT | 1.12 |
| TAATGTTTCA | 1.01 |
| TCTTTTCAGG | 0.969 |
| TGCCCGTACA | 1.02 |
| CTCCTTTGTC | 1.03 |
| TCATATTCTG | 0.97 |
| TAGACAGTAA | 1.1 |
| CCAACCGTAG | 1.22 |
| AGCAGAGCCA | 1.02 |
| CCTGGTTCTT | 1.03 |
| CCAAGTTTAG | 1.07 |
| CCAGGAGTTC | 1.03 |
| CTGTAGGCGA | 1.32 |
| CGTATATCCC | 1.09 |
| AAGATAATGG | 1.02 |
| TTGAATAAAC | 0.967 |
| TACTGTTTTA | 1.04 |
| GACGAGCTGC | 1.17 |

| Sequence | switch fluorescence ratio |
| --- | --- |
| ATGGCTGGTC | 1.01 |
| TACTGAGGA | 1 |
| ATGTAAATAG | 1.04 |
| TTGTGCTAGT | 0.988 |
| GTGAGTCTAT | 0.998 |
| CTATGCA | 1.15 |
| AGACGGAGCT | 1.33 |
| ACGTTCTGTG | 1.04 |
| GAGTCAGGCC | 1.02 |
| TGAGGTCGTC | 0.994 |
| GGTTTGACA | 1.01 |
| TCATGCTTAG | 0.989 |
| ACTCATATGC | 1.25 |
| GTACGGACGG | 1.49 |
| CCCTGAGTTC | 1.02 |
| GACGCCCCAG | 1.02 |
| AATACCTATC | 1.07 |
| CGCACCGTCG | 1.05 |
| TAATAAAGGC | 0.971 |
| GGGGATGATC | 1.01 |
| TGAGATGTTG | 0.949 |
| TTTCAATTG | 1.02 |
| GGTCGTAGGT | 0.979 |

| Sequence | switch fluorescence ratio |
| --- | --- |
| AAGAAGTTAT | 1 |
| ACGATGGGGG | 1.07 |
| CTATGGAACT | 1.06 |
| GCCGTTGT | 0.971 |
| AAGTGGCGGG | 0.999 |
| CTTTTTTCCA | 1 |
| GTCACTCCCC | 2.29 |
| CGTGGTAAAT | 0.998 |
| TGTTCTTT | 0.989 |
| TGGTTTTTCG | 0.959 |
| GCTGTATATG | 0.972 |
| GCGAGTGGAT | 1.06 |
| TAGTAGGTGT | 1.08 |
| GGGGCTGTGT | 0.963 |
| ATTCGAAAAT | 1.12 |
| TAATGTCTAA | 0.99 |
| CGTTGCCGAA | 1.03 |
| TGTTCCTTAT | 0.99 |
| AATCATTACG | 0.935 |
